# Results: a collection of fitness landscapes (doi:10.1016/j.celrep.2020.107928)
# Whole data set: some 81,000 sequences, median “one-hybrid fitness for binding parS DNA” near -0.17, cut for the highest 2% near 0.51. This is one part of the list.
# B1: Caulobacter ParB omega fusion; a variant is named by its letters at X, in order, B8GW30 (parent)
# chain: MESVVVGEPGMSEGRRGLGRGLSALLGEVDAAPAQAPGEQLGGSREAPIEILQRNPDQPRRTFREEDLEDLSNSIREKGVLQPILVRPSPDTAGEYQIVAGERAWRAAQRAGLKTVPIMVRELDDLAVLEIGIIENVQRADLNVLEEALSYKVLMEKFERTQENIAQTIGKSXSHVANXMRLLXLPDEVQSYLVSGELTAXHARAIAAAADPVALAKQIIEGGLSVRETEALARKAPNLSAGKSKGGRPPRVKDTDTQALESDLSSVLGLDVSIDHRGSTGTLTITYATLEQLDDLCNRLTRGI
# Variants of: B1
# Assay: one-hybrid fitness for binding parS DNA (scaled: cognate 1, non-cognate 0); higher = stronger binding
# Settings: with parS DNA site
# Method in brief: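 Bacterial one-hybrid selection in E. coli USO rpoZ- hisB- pyrF- with a HIS3 reporter carrying the site 19 bp from the promoter, screening Caulobacter ParB libraries with four specificity codons randomised (NNS). Cells grew 48 hours at 37°C on M9-minus-histidine plus 0.1 mM IPTG and 5 mM 3-AT. Plasmids before and after selection were Illumina-sequenced, three replicate libraries pooled, and variants under 10 reads dropped. Fitness is the log change in variant-to-wild-type read ratio, rescaled to cognate 1, non-cognate 0.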
row,Variant,one-hybrid fitness for binding parS DNA
1,CARR,≤ 0.2
2,EGER,≤ 0.2
3,GNAC,≤ 0.2
4,EDPF,≤ 0.2
5,ILYQ,≤ 0.2
6,DHTF,≤ 0.2
7,DCHN,≤ 0.2
8,VWGT,≤ 0.2
9,WCNS,≤ 0.2
10,IGKG,≤ 0.2
11,KGDG,≤ 0.2
12,DHSC,≤ 0.2
13,LDMT,≤ 0.2
14,APPT,≤ 0.2
15,TVHA,≤ 0.2
16,RCNR,≤ 0.2
17,QKGM,≤ 0.2
18,DRVM,≤ 0.2
19,SPSA,≤ 0.2
20,INHA,≤ 0.2
21,PQGC,≤ 0.2
22,TTFH,≤ 0.2
23,PKMG,≤ 0.2
24,HSRG,≤ 0.2
25,LTRS,≤ 0.2

row,Variant,one-hybrid fitness for binding parS DNA
1,CKRC,≤ 0.2
2,ETMR,≤ 0.2
3,HWLC,≤ 0.2
4,DGKI,≤ 0.2
5,PPTE,≤ 0.2
6,WWIG,≤ 0.2
7,CSVS,≤ 0.2
8,SIQW,≤ 0.2
9,PGYF,≤ 0.2
10,FATC,≤ 0.2
11,FRPM,≤ 0.2
12,DVNS,≤ 0.2
13,ANGS,≤ 0.2
14,AVDY,≤ 0.2
15,PGYD,≤ 0.2
16,TGEE,≤ 0.2
17,WVRR,≤ 0.2
18,GAGP,≤ 0.2
19,PRRT,≤ 0.2
20,MGMC,≤ 0.2
21,QEVR,≤ 0.2
22,KDLI,≤ 0.2
23,PIDY,≤ 0.2
24,HPMC,≤ 0.2
25,RLLE,≤ 0.2

row,Variant,one-hybrid fitness for binding parS DNA
1,PMMG,≤ 0.2
2,RVYD,0.216
3,SIQQ,≤ 0.2
4,PWEY,≤ 0.2
5,CIDV,≤ 0.2
6,PSPN,≤ 0.2
7,KVVL,≤ 0.2
8,QFLV,≤ 0.2
9,HMRL,≤ 0.2
10,RMVS,1.04
11,CLGG,≤ 0.2
12,PCSA,≤ 0.2
13,LALA,≤ 0.2
14,DYVT,≤ 0.2
15,EHDR,≤ 0.2
16,RPVV,≤ 0.2
17,FTFC,≤ 0.2
18,SMQG,≤ 0.2
19,ILWG,≤ 0.2
20,QSPA,≤ 0.2
21,PTPH,≤ 0.2
22,NHRC,≤ 0.2
23,MSDP,≤ 0.2
24,VDRV,≤ 0.2
25,TKMR,≤ 0.2

row,Variant,one-hybrid fitness for binding parS DNA
1,PQWL,≤ 0.2
2,QQTH,≤ 0.2
3,EESS,≤ 0.2
4,YKWG,≤ 0.2
5,NKCC,≤ 0.2
6,CLKV,≤ 0.2
7,GLDF,≤ 0.2
8,TVKM,≤ 0.2
9,ECNT,≤ 0.2
10,NYSC,≤ 0.2
11,KADR,≤ 0.2
12,MLYT,≤ 0.2
13,VVRR,≤ 0.2
14,NRPS,≤ 0.2
15,CRTY,≤ 0.2
16,TPMM,≤ 0.2
17,LACT,≤ 0.2
18,SRDF,≤ 0.2
19,VWCR,≤ 0.2
20,QWRA,≤ 0.2
21,FLAM,≤ 0.2
22,CFQI,≤ 0.2
23,IRWS,≤ 0.2
24,AAHY,≤ 0.2
25,TSEK,≤ 0.2

row,Variant,one-hybrid fitness for binding parS DNA
1,WIIL,≤ 0.2
2,YLQI,≤ 0.2
3,RKMI,≤ 0.2
4,CDKV,≤ 0.2
5,SWWG,≤ 0.2
6,KNKG,≤ 0.2
7,CNHL,≤ 0.2
8,RHGP,≤ 0.2
9,INCT,≤ 0.2
10,YGMC,≤ 0.2
11,LSAT,≤ 0.2
12,HTTL,≤ 0.2
13,QTRS,≤ 0.2
14,KGML,≤ 0.2
15,GVEH,≤ 0.2
16,RFDD,≤ 0.2
17,SHPT,≤ 0.2
18,VYAC,≤ 0.2
19,ITTL,≤ 0.2
20,RLWS,1.03
21,CKWR,≤ 0.2
22,TEPD,≤ 0.2
23,GALA,≤ 0.2
24,PTKF,≤ 0.2
25,PGIV,≤ 0.2

row,Variant,one-hybrid fitness for binding parS DNA
1,MVIS,≤ 0.2
2,PPPQ,≤ 0.2
3,AKCR,≤ 0.2
4,GSLP,≤ 0.2
5,QLMC,≤ 0.2
6,VHYA,≤ 0.2
7,TQPG,≤ 0.2
8,GFSC,≤ 0.2
9,VEMC,≤ 0.2
10,LQLM,≤ 0.2
11,ANLT,≤ 0.2
12,MDMC,0.201
13,SCNL,≤ 0.2
14,PHHH,≤ 0.2
15,PRFA,≤ 0.2
16,NWTY,≤ 0.2
17,CWPV,≤ 0.2
18,TGTS,≤ 0.2
19,EWRR,≤ 0.2
20,LQKN,≤ 0.2
21,DMKC,≤ 0.2
22,YVRS,≤ 0.2
23,QAGH,≤ 0.2
24,RMTV,≤ 0.2
25,KLDS,≤ 0.2

row,Variant,one-hybrid fitness for binding parS DNA
1,PAFN,≤ 0.2
2,NVQC,≤ 0.2
3,YGLR,≤ 0.2
4,LTQT,≤ 0.2
5,QELS,≤ 0.2
6,MYNC,≤ 0.2
7,TFQT,≤ 0.2
8,QNNL,≤ 0.2
9,NTTL,≤ 0.2
10,RTHF,0.277
11,LNLA,≤ 0.2
12,SIPG,≤ 0.2
13,FYYT,≤ 0.2
14,PSVT,≤ 0.2
15,RSWK,≤ 0.2
16,QVVC,≤ 0.2
17,GAAW,≤ 0.2
18,SPIH,≤ 0.2
19,IPAG,≤ 0.2
20,GLQS,≤ 0.2
21,WYLY,≤ 0.2
22,TGNI,≤ 0.2
23,TVVM,≤ 0.2
24,YNSR,≤ 0.2
25,PQCR,≤ 0.2

row,Variant,one-hybrid fitness for binding parS DNA
1,ESTV,≤ 0.2
2,VVES,≤ 0.2
3,GKAT,≤ 0.2
4,NSGR,≤ 0.2
5,APIS,≤ 0.2
6,TIIG,≤ 0.2
7,SFKQ,≤ 0.2
8,CAQG,≤ 0.2
9,GNCY,≤ 0.2
10,MKAT,≤ 0.2
11,MSTR,≤ 0.2
12,DPLS,≤ 0.2
13,ESQT,≤ 0.2
14,SHSM,≤ 0.2
15,RGDT,0.371
16,RLPP,≤ 0.2
17,GINS,≤ 0.2
18,SALF,≤ 0.2
19,HPCS,≤ 0.2
20,EWPR,≤ 0.2
